Test results taken from the supplement of paper PMC10126150.
Sequences with one replicate were seen in a single cluster, so their values are uncertain.

Tested on: ATP
Assay: switch fluorescence ratio, 500 uM ATP over buffer (Cy3 cluster intensity, sum of 5 cycles each) (fold (ratio)); higher = stronger signal-on switching upon ATP binding; sequences stand for … in TCGTCGGCAGCGTCAGATGTGTATAAGAGACAGTTTTTTTTTTTTTTTTTTTTTTTTT…TC
Conditions: aptamer strand: ATP DNA aptamer (quencher-CACCTGGGGGAGTATTGCGGAGGAAGG + anchor), 100 nM annealed; ATP concentration: 500 uM; one replicate
In short: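 For every switch-domain sequence, the fluorescence ratio is the mean of per-cluster values, each being summed target-cycle Cy3 intensity over summed buffer-cycle Cy3 intensity. Clusters outside 100-1000 RFU were excluded. On a modified Illumina MiSeq flow-cell, the Cy3-labelled switching-strand clusters were annealed to 100 nM quencher-labelled ATP aptamer, imaged in selection buffer and then after 15 min with 500 uM ATP at 22 °C. Five such cycles were run, with NaOH stripping and re-annealing between them.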
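Further: ATP exposure 15 min at 22 °C before imaging.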

Q: Which switch fluorescence ratio does the source give for GGCGTCATGT here?
A: 0.98

Q: How did the switch fluorescence ratio turn out when GGCGTTAGGT was run?
A: 0.996

Q: How did the switch fluorescence ratio turn out when GGCGTTCTAG was run?
A: 0.995

Q: For GGCTAACGTG, which switch fluorescence ratio is on record?
A: 1.01

Q: For GGCTACACCT, which switch fluorescence ratio is on record?
A: 1.15

Q: With GGCTACGCA as the sequence, how does the switch fluorescence ratio read?
A: 1.25

Q: How did the switch fluorescence ratio turn out when GGCTACTGTA was run?
A: 1.16

Q: How did the switch fluorescence ratio turn out when GGCTAGGCGG was run?
A: 0.983

Q: For GGCTCACCT, which switch fluorescence ratio is on record?
A: 1.13

Q: How did the switch fluorescence ratio turn out when GGCTCGCACA was run?
A: 1.07

Q: GGCTCGTCTG was tested. Which switch fluorescence ratio did it give?
A: 1.07

Q: How did the switch fluorescence ratio turn out when GGCTCTCTAC was run?
A: 1.11

Q: Which switch fluorescence ratio does the source give for GGCTGAAGCG here?
A: 0.928

Q: GGCTGACATA was tested. Which switch fluorescence ratio did it give?
A: 1.01

Q: For GGCTGAGTCC, which switch fluorescence ratio is on record?
A: 1.01

Q: Which switch fluorescence ratio does the source give for GGCTGAGTGG here?
A: 0.984

Q: For GGCTGATTCG, which switch fluorescence ratio is on record?
A: 0.992

Q: How did the switch fluorescence ratio turn out when GGCTGCCGTG was run?
A: 1.04

Q: Which switch fluorescence ratio does the source give for GGCTGCGTAC here?
A: 1.63

Q: For GGCTGGAGTG, which switch fluorescence ratio is on record?
A: 0.973

Q: Which switch fluorescence ratio does the source give for GGCTGTTTCC here?
A: 0.954

Q: How did the switch fluorescence ratio turn out when GGCTTAACAT was run?
A: 0.979

Q: How did the switch fluorescence ratio turn out when GGCTTATACG was run?
A: 1.08

Q: With GGCTTATTTA as the sequence, how does the switch fluorescence ratio read?
A: 0.996

Q: GGCTTCCC was tested. Which switch fluorescence ratio did it give?
A: 2.05

Q: With GGCTTTGGCA as the sequence, how does the switch fluorescence ratio read?
A: 0.959

Q: For GGCTTTTAAT, which switch fluorescence ratio is on record?
A: 1.06

Q: Which switch fluorescence ratio does the source give for GGGAAAACAG here?
A: 1.03

Q: GGGAAACAGC was tested. Which switch fluorescence ratio did it give?
A: 1.01

Q: How did the switch fluorescence ratio turn out when GGGAAACGAT was run?
A: 1.05

Q: GGGAAACGTA was tested. Which switch fluorescence ratio did it give?
A: 1.02

Q: GGGAAATGTA was tested. Which switch fluorescence ratio did it give?
A: 0.983

Q: For GGGAACAAGG, which switch fluorescence ratio is on record?
A: 1.01

Q: GGGAACACTG was tested. Which switch fluorescence ratio did it give?
A: 1.01

Q: GGGAACGAGC was tested. Which switch fluorescence ratio did it give?
A: 0.947

Q: For GGGAACTAAT, which switch fluorescence ratio is on record?
A: 0.982

Q: How did the switch fluorescence ratio turn out when GGGAACTGTT was run?
A: 1.1

Q: For GGGAAGCGTC, which switch fluorescence ratio is on record?
A: 0.95

Q: GGGAATATCA was tested. Which switch fluorescence ratio did it give?
A: 0.949

Q: How did the switch fluorescence ratio turn out when GGGAATGATG was run?
A: 0.945

Q: With GGGAATGT as the sequence, how does the switch fluorescence ratio read?
A: 0.981

Q: Which switch fluorescence ratio does the source give for GGGAATTCCC here?
A: 0.974

Q: With GGGAATTGAA as the sequence, how does the switch fluorescence ratio read?
A: 0.94

Q: How did the switch fluorescence ratio turn out when GGGACAAAA was run?
A: 0.994

Q: Which switch fluorescence ratio does the source give for GGGACATACC here?
A: 1.25

Q: With GGGACCTTGC as the sequence, how does the switch fluorescence ratio read?
A: 1.91

Q: With GGGACGCTGT as the sequence, how does the switch fluorescence ratio read?
A: 0.985

Q: GGGACTGGAT was tested. Which switch fluorescence ratio did it give?
A: 1.04

Q: How did the switch fluorescence ratio turn out when GGGAGAGTAC was run?
A: 0.98

Q: For GGGAGATAAA, which switch fluorescence ratio is on record?
A: 1.01

Q: For GGGAGCCCGT, which switch fluorescence ratio is on record?
A: 1

Q: How did the switch fluorescence ratio turn out when GGGAGCTCAG was run?
A: 0.979

Q: With GGGAGGATAA as the sequence, how does the switch fluorescence ratio read?
A: 0.988

Q: GGGAGGGTCA was tested. Which switch fluorescence ratio did it give?
A: 1.07

Q: Which switch fluorescence ratio does the source give for GGGAGGTGA here?
A: 0.986

Q: For GGGAGGTGG, which switch fluorescence ratio is on record?
A: 1.1

Q: How did the switch fluorescence ratio turn out when GGGATACCTC was run?
A: 0.973

Q: How did the switch fluorescence ratio turn out when GGGATAGAAT was run?
A: 0.995

Q: For GGGATGGTAA, which switch fluorescence ratio is on record?
A: 0.989

Q: For GGGATGGTTG, which switch fluorescence ratio is on record?
A: 1.02

Q: With GGGATGTAA as the sequence, how does the switch fluorescence ratio read?
A: 1.02

Q: How did the switch fluorescence ratio turn out when GGGATTCAAG was run?
A: 1.01

Q: Which switch fluorescence ratio does the source give for GGGATTCTAG here?
A: 0.958

Q: For GGGATTCTTT, which switch fluorescence ratio is on record?
A: 1.04

Q: For GGGCAAAAAT, which switch fluorescence ratio is on record?
A: 1.03

Q: GGGCAACTAA was tested. Which switch fluorescence ratio did it give?
A: 1.03

Q: Which switch fluorescence ratio does the source give for GGGCAAGCCC here?
A: 1.03

Q: For GGGCAGACCC, which switch fluorescence ratio is on record?
A: 0.955

Q: GGGCAGTGAC was tested. Which switch fluorescence ratio did it give?
A: 1.01

Q: With GGGCATAG as the sequence, how does the switch fluorescence ratio read?
A: 1.25

Q: Which switch fluorescence ratio does the source give for GGGCCAGGCA here?
A: 1.05

Q: With GGGCCCGTCA as the sequence, how does the switch fluorescence ratio read?
A: 1

Q: GGGCCCTCGC was tested. Which switch fluorescence ratio did it give?
A: 1.01

Q: GGGCCCTGTG was tested. Which switch fluorescence ratio did it give?
A: 1.01

Q: With GGGCCGGCGC as the sequence, how does the switch fluorescence ratio read?
A: 0.975

Q: With GGGCCTGACC as the sequence, how does the switch fluorescence ratio read?
A: 0.992

Q: For GGGCCTTTGG, which switch fluorescence ratio is on record?
A: 0.967

Q: How did the switch fluorescence ratio turn out when GGGCGAGAAG was run?
A: 0.969

Q: With GGGCGCCACA as the sequence, how does the switch fluorescence ratio read?
A: 0.974

Q: How did the switch fluorescence ratio turn out when GGGCGCGTTG was run?
A: 1

Q: Which switch fluorescence ratio does the source give for GGGCGCTTTT here?
A: 1.3

Q: For GGGCGGATGC, which switch fluorescence ratio is on record?
A: 0.959

Q: GGGCGGCGAA was tested. Which switch fluorescence ratio did it give?
A: 1.03

Q: With GGGCGGGATA as the sequence, how does the switch fluorescence ratio read?
A: 1.01

Q: GGGCGGGCCT was tested. Which switch fluorescence ratio did it give?
A: 0.961
